This is one part of the list. Sequences were assembled here from the parent chain. Values near 0.05 are background.
B1: TEV protease; numbered along this chain (parent)
chain: MGESLFKGPRDYNPISSSICHLTNESDGHTTSLYGIGFGPFIITNKHLFRRNNGTLVVQSLHGVFKVKDTTTLQQHLVDGRDMIIIRMPKDFPPFPQKLKFREPQREERICLVTTNFQTKSMSSMVSDTSCTFPSGDGIFWKHWIQTKDGQCGSPLVSTRDGFIVGIHSASNFTNTNNYFTSVPKNFMELLTNQEAQQWVSGWRLNADSVLWGGHKVFMVKPEEPFQPVKEATQL

Variants of: B1
Assay: raw area under fraction-flipped curve 0-4 h after induction (AUC4h, not background-subtracted), DNA-recorder readout of cleavage of the substrate (dimensionless); higher = more cleavage of the substrate by the protease variant
Settings: temperature: 34 °C; time window: 0-4 h after rhamnose induction
Experimental: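 In vivo DNA recorder in E. coli TOP10(DE3) ΔrhaA at 34 °C. Each TEVp single-site mutant (parent TEVp 0) is paired with a single-site variant of the 7-mer TEVs (canonical ENLYFQ|S). The substrate sits between flexible linkers in a Bxb1-sfGFP-TEVs-SsrA fusion, so cleavage stabilises Bxb1 and speeds flipping of a recombination array, read by NGS. The value is the raw area under the fraction-flipped curve over 0-4 h after rhamnose induction (AUC4h), with ≥20 reads per time point. It is not background-subtracted; inactive controls average about 0.047.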
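Also: Bxb1 expression induced with 0.2% (w/v) L-rhamnose at OD600 near 0.5, cultures sampled hourly, flipped fraction per protease–substrate barcode pair counted by paired-end Illumina sequencing.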

Row | Variant | area with substrate ENLYFQA | area with substrate ENLYFQC | area with substrate ENLYFQE | area with substrate ENLYFQG | area with substrate ENLYFQM | area with substrate ENLYFQN | area with substrate ENLYFQP | area with substrate ENLYFQQ | area with substrate ENLYFQS | area with substrate ENLYFQD | area with substrate ENLYFQH | area with substrate ENLYFQR | area with substrate ENLYFQV | area with substrate ENLYFQW | area with substrate ENLYFQL | area with substrate ENLYFQY | area with substrate ENLYFQK | area with substrate ENLYFQF | area with substrate ENLYFQI | area with substrate ENLYFQT
1 | MGESLFKGPRDYNPISSSICHLTNESDGHTTSLYGIGFGPFIITNKHLFRRNNGTLVVQSLHGVFKVKDTTTLQQHLVDGRDMIIIRMPKDFPPFPQKLKFREPQREERICLVTTNFQTKSMSSMVSDTSCTFPSGDGIFWKHWIQTKDGQCGSPLVSTRDGFIVGIHSASNFTNTNNYFTSVPKNFMELLTNQEAQQWVSGWRLNADSVLWGGHKVFMVKPEEPFQPVKSATQL [E231S] | 0.127 | 0.087 | 0.0556 | 0.104 | 0.0961 | 0.0873 | 0.0651 | 0.0854 | 0.102 | – | – | – | – | – | – | – | – | – | – | –
2 | MGESLFKGPRDYNPISSSICHLTNESDGHTTSLYGIGFGPFIITNKHLFRRNNGTLVVQSLHGVFKVKDTTTLQQHLVDGRDMIIIRMPKDFPPFPQKLKFREPQREERICLVTTNFQTKSMSSMVSDTSCTFPSGDGIFWKHWIQTKDGQCGSPLVSTRDGFIVGIHSASNFTNTNNYFTSVPKNFMEVLTNQEAQQWVSGWRLNADSVLWGGHKVFMVKPEEPFQPVKEATQL [L190V] | 0.0927 | 0.14 | – | – | – | 0.0428 | – | – | 0.11 | 0.0485 | 0.0827 | 0.0515 | 0.0615 | 0.0764 | – | – | – | – | – | –
3 | MGESLFKGPRDYNPISSSICHLTNESDGHTTSLYGIGFGPFIITNKHLFRRNNGTLVVQSLHGVFKVKDTTTLQQHLVDGRDMIIIRMPKDFPPFPQKLKFREPQREERICLVTTNFQTKSMSSMVSDTSCTFPSGDGIFWKHWIQTKDGQCGSPLVSTRDGFIVGIHSASNPTNTNNYFTSVPKNFMELLTNQEAQQWVSGWRLNADSVLWGGHKVFMVKPEEPFQPVKEATQL [F173P] | 0.0862 | 0.0999 | – | – | – | 0.0557 | – | 0.0491 | 0.0856 | – | 0.078 | 0.0515 | 0.0626 | – | 0.0535 | 0.058 | – | – | – | –
4 | MGESLFKGPRDYNPISSSICHLTNESDGHTTSLYGIGFGPFIITNKHLFRRNNGTLVVQSLHGVFKVKDTTTLQQHLHDGRDMIIIRMPKDFPPFPQKLKFREPQREERICLVTTNFQTKSMSSMVSDTSCTFPSGDGIFWKHWIQTKDGQCGSPLVSTRDGFIVGIHSASNFTNTNNYFTSVPKNFMELLTNQEAQQWVSGWRLNADSVLWGGHKVFMVKPEEPFQPVKEATQL [V78H] | 0.0667 | 0.0785 | – | 0.0661 | 0.0655 | 0.0701 | 0.0611 | – | 0.0695 | – | 0.0617 | 0.0583 | – | – | – | – | 0.0673 | – | – | –
5 | MGESLFKGPRDYNPISSSICHLTNESDGHTTSLYGIGFGPFIITNKHLFRRNNGTLVVWSLHGVFKVKDTTTLQQHLVDGRDMIIIRMPKDFPPFPQKLKFREPQREERICLVTTNFQTKSMSSMVSDTSCTFPSGDGIFWKHWIQTKDGQCGSPLVSTRDGFIVGIHSASNFTNTNNYFTSVPKNFMELLTNQEAQQWVSGWRLNADSVLWGGHKVFMVKPEEPFQPVKEATQL [Q59W] | 0.104 | – | – | 0.109 | 0.0585 | – | 0.0477 | – | 0.108 | – | – | 0.064 | – | – | 0.0449 | 0.0785 | – | 0.0788 | – | –
6 | MGESLFKGPRDYNPISSSICHLTNESDGHTTSLYGIGFGPFIITNKHLFRRNNGTLVVQSLHGVFKVKDTTTLQQHLVDGRDMIIIRMPKDFPPFPQKLKFREPQREERICLVTTNFQTKSMSSMVSDTSCTFPSGDGIFWKHWIQTKDGQCGSPLVSTRLGFIVGIHSASNFTNTNNYFTSVPKNFMELLTNQEAQQWVSGWRLNADSVLWGGHKVFMVKPEEPFQPVKEATQL [D161L] | 0.0678 | 0.0639 | – | 0.056 | 0.0504 | 0.0702 | 0.0453 | 0.0421 | 0.058 | 0.0415 | 0.0665 | 0.0579 | 0.0515 | 0.0503 | 0.0608 | 0.0485 | 0.0547 | 0.0357 | 0.0539 | 0.0413
7 | MGESLFKGPRDYNPISSSICHLTNESDGHTTSLYGIGFGPFIITNKHLFRRNNGTLVVQSLHGVFKVKDTTTLQQHLVDGRDMIIILMPKDFPPFPQKLKFREPQREERICLVTTNFQTKSMSSMVSDTSCTFPSGDGIFWKHWIQTKDGQCGSPLVSTRDGFIVGIHSASNFTNTNNYFTSVPKNFMELLTNQEAQQWVSGWRLNADSVLWGGHKVFMVKPEEPFQPVKEATQL [R87L] | 0.0882 | – | – | 0.109 | – | 0.104 | – | – | 0.102 | 0.0656 | 0.0855 | 0.0628 | – | 0.0606 | – | – | 0.0639 | 0.0848 | 0.0473 | 0.0445
8 | MGESLFKGPRDYNPISSSICHLTNESDGHTTSLYGIGFGPFIITNKHLFRRNNGTLVVQSLHGVFKVKDTTTLQQHLVDGRDMIIIRMPKDFPPFPQKLKFREPQREERICLVTTNFQTKSMSSMVSDTSCTFPSGDGIFWKHWIQTKDGQCGSPLVSTRDGFIVGIHSASNFTNTNNYFTSVPKNFMELLTNDEAQQWVSGWRLNADSVLWGGHKVFMVKPEEPFQPVKEATQL [Q194D] | 0.101 | 0.124 | – | 0.111 | 0.093 | 0.0747 | 0.0515 | – | 0.113 | 0.078 | – | 0.0691 | – | 0.0544 | 0.0623 | 0.0571 | 0.0604 | 0.0973 | 0.0633 | 0.0705
9 | MGESLFKGPRDYNPISSSICHLTNESDGHTTSLYGIGFGPFIITNKHLFRRNNGTLVVQSLHGVFKVKDTTTLQQHLVDGRDMIIIRMPKDFPPFPQKLKFREPVREERICLVTTNFQTKSMSSMVSDTSCTFPSGDGIFWKHWIQTKDGQCGSPLVSTRDGFIVGIHSASNFTNTNNYFTSVPKNFMELLTNQEAQQWVSGWRLNADSVLWGGHKVFMVKPEEPFQPVKEATQL [Q105V] | 0.115 | 0.12 | – | 0.119 | 0.0948 | 0.0866 | – | – | 0.117 | – | 0.0914 | 0.0952 | – | 0.0568 | 0.0705 | 0.0848 | 0.0638 | – | 0.0498 | 0.0717
10 | MGESLFKGPRDYNPISSSICHLTNESDGHTTSLYGIGFGPFIITNKHLFRRNNGTLVVQSLHGVFKVKDTTTLQQHLVDGRDMIIIRMPKDFPPFPQKLKFREPQREERICLVTTNFQTKSMSSMVRDTSCTFPSGDGIFWKHWIQTKDGQCGSPLVSTRDGFIVGIHSASNFTNTNNYFTSVPKNFMELLTNQEAQQWVSGWRLNADSVLWGGHKVFMVKPEEPFQPVKEATQL [S127R] | 0.103 | 0.129 | – | – | 0.111 | 0.103 | 0.0668 | – | 0.112 | – | 0.0806 | 0.0583 | – | 0.0572 | – | 0.0757 | – | 0.0765 | – | 0.0412
